Data on 57 sequences can be found in the supplement of paper PMC11417369.

This is one part of the list.

For this test, the system named is PfAP2-HC AP2 domain (GST-tagged). The experiment in a line: gcPBM binding intensity (ln(normalized median fluorescence intensity)); higher = stronger DNA binding. Put shortly: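 Binding intensity is the highest Masliner-normalised natural-log median intensity over replicate spots in either probe orientation. To obtain it, GST-tagged P. falciparum DNA-binding domains made in E. coli were incubated for 1 h on an Agilent 4 × 180k array of primer-extended double-stranded 36-bp intergenic genomic probes plus negative controls. Detection used Alexa488 anti-GST antibody with scanning at 488 nm.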
Consider TTACACATGTATTTGGTGCATGTTGTTAACAAAATA, for which the “gcPBM binding intensity (ln)” value turned out to be 9.52.
In the case of “TTAACATACACTCTAGTGCATATATATAACAAAATA [GTGCAC_site9724]” it was 9.49.
In the case of “ATTAAAACACAATATTCACACATGTATATTATATAT [CACACA_site5191]” it was 9.8; in that of “AATTTAAATCTTCAAAGTACTAAAAAAAAAAATAAT [XGTACX_site8566]”, 9.34.
Take “ATCATATTTATATTGGTGCATTATGCATGAAATTTA [GTGCAC_site9571]”: the “gcPBM binding intensity (ln)” value came to 9.6.
Turning to “ATAATAAGCAGACACACACACACAAAAAAAAAAAAA [CACACA_site6477]”, the “gcPBM binding intensity (ln)” value came out at 11.
In the case of “ATATAAATTTAATACACACCCAAAAAAAAAAAAAAA [CACACA_site3750]” it was 9.72; in that of “TAAATAAATACATACACACACATACAGATATATATA [CACACA_site5690]”, 10.5.
In the case of “TATGCTTTGATGAAGACACACATATAGAAGCGTATT [CACACA_site1925]” it was 9.66.
As for “CGCCCACAGATATATACACACATATATAAATAAATA [CACACA_site6877]”, the “gcPBM binding intensity (ln)” value stood at 9.69.
Turning to “AAAACTATTTCTTTCAGTACATATTTGGACTTATAT [XGTACX_site4977]”, the “gcPBM binding intensity (ln)” value is 9.52.
In the case of “TACTTTTATAAAAATTGTACAAAAAAAAAAAAAAAA [XGTACX_site2266]” it was 9.03; in that of “TATGTTATAAAATATATATTATAATATGTATATATA [XGTACX_negctrl_site233]”, 9.49; in that of “AAACAAAAAAGTAAGAAAAGGGATGATTGGATCCAA [CACACA_negctrl_site1230]”, 9.62.
The value for “AGATATTATAATTAATGTACAAAAAGAAAAAATAGA [XGTACX_site8964]” was 9.76.
In the case of “CATACATACAGACACACACACATATATATATATATA [CACACA_site2920]” it was 10.7; in that of “AACATAAAAATGAACATACACACATATATATATATA [CACACA_site2497]”, 10.7.
For “ATAAAAATACAGTTAACACACATGTGGATATATATG [CACACA_site3771]”, the “gcPBM binding intensity (ln)” value is 10.4.
Turning to “TATATAACATAATATACACACATTATGTGCGTAATT [CACACA_site4073]”, the “gcPBM binding intensity (ln)” value stood at 9.75.
For the sequence GTATATCATTTTGGGGTGCTTAAAAATAATGAATAC, the “gcPBM binding intensity (ln)” value is 9.56.
As for “TTTTTTTTTTTTTATTGTACAAAGGTATAAAATAAT [XGTACX_site2396]”, the “gcPBM binding intensity (ln)” value amounted to 9.34.
In the case of “TATTATTCTGTATTTGCATGTGATCATATATATGTA [TGCATGCA_site1053]” it was 9.72.
Turning to “CATATGTATATGACTACACACAAGGGTGTACAGATA [CACACA_site4776]”, the “gcPBM binding intensity (ln)” value was 9.8.
On to “TTTTTAATTTATTAAGAAGTAAAGAATAACTCTTTT [TGCATGCA_negctrl_site101]”, for which the “gcPBM binding intensity (ln)” value worked out at 9.19.
In the case of “AAACATTAAAATAACTCACACATTTTTCTAGTCTTC [CACACA_site4612]” it was 9.7; in that of “ATATATTTAATATTCACACATAATTATTTTTACTCT [CACACA_site5438]”, 9.82; in that of “ATATAATGATAATATTGTACATGTTATATTTCAATA [XGTACX_site8645]”, 9.6.
In the case of “TATAGATAAGAATATGCACACATTTTATTTTTTTTT [CACACA_site1982]” it was 9.76.
The value for “TTGTAATATCTTGTCACACATATATATATATATATA [CACACA_site4937]” was 9.72; that for “AGTTTTCCATGTTAATGTACTTAACAATACCATAAT [XGTACX_site209]” was 9.61.
As for “ATTTATTCATAGACAACAAGAAAAAAAAAAAAAATT [CACACA_negctrl_site1168]”, the “gcPBM binding intensity (ln)” value was 9.49.
As for “TATATCCATATTGTATGTACACATATAATACCAATG [XGTACX_site7230]”, the “gcPBM binding intensity (ln)” value amounted to 9.7.
In the case of “GTATTATCTTTTAATAGTACATATTTTTTTGAAACA [XGTACX_site4050]” it was 9.39.
In the case of “AATATATTTTTATATTGTACAAAAGAAAAAAAATAT [XGTACX_site1689]” it was 9.72; in that of “CATATAATATTTGAAACTATATATAAATATAAGGTA [TGCATGCA_negctrl_site19]”, 9.52; in that of “AAAACGGATTCTTTATAAATAAATAAATAAATATAA [XGTACX_negctrl_site157]”, 9.43.
As for “ATATATGTATGTTAGACACACATATTATAATATGTT [CACACA_site116]”, the “gcPBM binding intensity (ln)” value was found to be 9.82.
Take “AATACATACACAAATACACACACAAATACATACACA [CACACA_site8134]”: the “gcPBM binding intensity (ln)” value is 10.4.
Turning to “TTTTTTTTTTTTTTTACACACAAATGTATACTATAT [CACACA_site1787]”, the “gcPBM binding intensity (ln)” value is 9.71.
For the sequence “TATTAAATATTCATATGTACATATAGTTTATAAATT [XGTACX_site7455]”, the “gcPBM binding intensity (ln)” value was found to be 9.58.
The value for “TATAAATAAATGTGTACACACATTAAAATCAAACGT [CACACA_site2340]” was 10.3; that for “TTTATCAAAAAAAAAAAAAAAAAAAAAAAAAATTGT [CACACA_negctrl_site176]” was 9.26.
In the case of “TATATGTTTTATAAATGTACATATACTTAAATATTT [XGTACX_site4753]” it was 9.62.
The value for TTATGTGCTTTAAAAGTGCATTTTTTTTTTTTTTTT was 9.34; that for TTTTTTGTTATGCGGGTGCATATAATAATGTGATGA was 9.44; that for “TTATTTGTATCCATTTCACACATTTTATATAGTATC [CACACA_site5989]” was 9.82.
In the case of “AATACATAATAACGTTGTACAAAAATTATAATACAT [XGTACX_site6508]”, the “gcPBM binding intensity (ln)” value came out at 10.
For “ACTATTAAGAATAAAGAAATATGTAATTGTATTTAA [CACACA_negctrl_site516]”, the “gcPBM binding intensity (ln)” value is 9.51.
Regarding “TCCTCGCGTAATACTTTTCAAATAAAAAAAATAAAA [TGCATGCA_negctrl_site403]”, the “gcPBM binding intensity (ln)” value was 9.01.
For the sequence “ATTAAAAATTAATATAAACACACAAAAATTAATAAA [CACACA_site8019]”, the “gcPBM binding intensity (ln)” value amounted to 9.84.
The value for “TTTTTTTTTTTTTATTGTACTAGTAGATATATATAC [XGTACX_site3463]” was 9.59.
As to “CCAATATATACATATATATAGTTATATATATTTCCT [TGCATGCA_negctrl_site38]”, the “gcPBM binding intensity (ln)” value turned out to be 9.67.
In the case of “GTGTCAAATTTTATAACACACAAAAGATTATATAAG [CACACA_site4086]” it was 9.72; in that of “AAACATACTTGATGCAGTACACATTATAAGCACATA [XGTACX_site3359]”, 9.76.
The value for “TTTTAAAAATTAAAAAAATTAAATGTAAAAAAATGA [CACACA_negctrl_site861]” was 9.36; that for “ATATATGTATATGTGTGTACATATATGTTTATTATT [XGTACX_site6043]” was 9.9.
For the sequence “GGACTTAAATAAAATGGTACAGAATTTATATATATT [XGTACX_site8214]”, the “gcPBM binding intensity (ln)” value is 9.49.
